# From PubChem BioAssay (NCATS)
# “And” between values parts separate entries of the source, which are not always exact repeats. Identical values can stand only once. Inconclusive means that the source gave no clear call. Such entries were picked first, then a sample of the others. For part of these data: A potency beside an inconclusive call is a rough fit, not a confirmed value. A structure can be active in one record and inactive in another. The source made the active and inactive calls. Calls come from the whole dose curve; as a rule, active = well fitted curve in the direction sought with a large enough effect; inconclusive = small, poorly fitted or top-dose-only effect, or another doubt; inactive = no such curve, though single readings can be large; an effect the other way counts as inactive or inconclusive.
# What was measured:
# [1] = biological target: Cellular tumor antigen p53 (Homo sapiens) (UniProt P04637); assay: Primary qHTS for small molecule compounds that upregulate eGFP-tagged delta133p53alpha (in N-terminal) cells. (AID 2060322); settings: NCI-H358 eGFP-delta133p53alpha fluorescence, 24 h; activation: active compounds read high; note: nearly all actives have a fitted effect of over 75% in size;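 for activation: 0% = DMSO vehicle and 100% = reference activator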
# Sequence of UniProt P04637 (P04637 whole entry, looked up): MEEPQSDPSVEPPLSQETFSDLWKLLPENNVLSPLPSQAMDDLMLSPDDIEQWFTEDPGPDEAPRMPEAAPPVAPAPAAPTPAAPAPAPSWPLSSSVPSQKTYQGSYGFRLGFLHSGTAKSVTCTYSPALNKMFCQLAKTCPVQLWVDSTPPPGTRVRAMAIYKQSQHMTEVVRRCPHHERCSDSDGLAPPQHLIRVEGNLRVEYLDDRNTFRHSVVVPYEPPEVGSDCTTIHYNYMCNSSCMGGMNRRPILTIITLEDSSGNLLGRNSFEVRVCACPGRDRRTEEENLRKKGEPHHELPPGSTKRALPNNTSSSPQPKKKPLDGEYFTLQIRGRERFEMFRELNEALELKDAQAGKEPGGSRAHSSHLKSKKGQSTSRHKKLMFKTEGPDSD
# How it was run: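 NCI-H358 cells pre-induced 24 h with 10 ng/ml doxycycline to express N-terminal eGFP-delta133p53alpha, then dosed 24 h at 37C without doxycycline; fixed, Hoechst-stained, GFP intensity by laser scanning cytometry, normalized to DMSO (0%) and 57.5 uM 5-azacytidine (100%).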
# [2] = BET inhibitor-based combinations targeting novel dependencies in MECOM-rearranged (r) AML: HNT-34 cell line (AID 2202234); note: nearly all actives have a fitted effect of over 35% in size;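 for viability (% of control): plate controls were vehicle wells for no effect and cell-free wells for full effect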
# How it was run: (§1)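 Luminescent ATP readout (CellTiter-Glo, 15 min at room temperature) after 48 hr drug exposure gave viability. Dose-response curves, normalized to DMSO and empty-well controls, were summarized as area under the curve and its mean-centred Z-score.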
# [3] = BET inhibitor-based combinations targeting novel dependencies in MECOM-rearranged (r) AML: AML-191 cell line (AID 2202236; note: nearly all actives have a fitted effect of over 35% in size)
# How it was run: (§2)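 Luminescent ATP readout (CellTiter-Glo) after 48 hr drug exposure gives viability. Curves span 11 concentrations and are normalized to DMSO and empty wells. Activity is reported as area under the curve and its Z-transform within each cell line.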
# [4] = BET inhibitor-based combinations targeting novel dependencies in MECOM-rearranged (r) AML: AML-194 cell line (AID 2202237; note: nearly all actives have a fitted effect of over 40% in size;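 for viability (% of control): plate controls were vehicle wells for no effect and wells without cells for full effect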)
# How it was run: as §2
# [5] = BET inhibitor-based combinations targeting novel dependencies in MECOM-rearranged (r) AML: UCSD-AML1 cell line (AID 2202235); settings: UCSD-AML1 AML cells viability, CellTiter-Glo, 48 h; viability (% of control): at 46 µM (top of the series); note: nearly all actives have a fitted effect of over 40% in size;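 for viability (% of control): plate controls were DMSO vehicle wells for no effect and blank wells for full effect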
# How it was run: as §1
# [6] = BET inhibitor-based combinations targeting novel dependencies in MECOM-rearranged (r) AML: MV-4-11 cell line (AID 2202233); settings: MV-4-11 AML viability, CellTiter-Glo luminescence, 48 h; viability, % of control: at 46 µM (top of the series) unless noted; note: nearly all actives have a fitted effect of over 45% in size
# How it was run: as §1
# Potency is the fitted concentration of half-maximal effect; tags give direction and shape of the fitted curve.
smiles,measurement,setting,value
CO[C@H]1C[C@@H]2CC[C@@H](C)[C@@](O)(O2)C(=O)C(=O)N2CCCC[C@H]2C(=O)O[C@H]([C@H](C)C[C@@H]2CC[C@@H](OP(C)(C)=O)[C@H](OC)C2)CC(=O)[C@H](C)/C=C(\C)[C@@H](O)[C@@H](OC)C(=O)[C@H](C)C[C@H](C)/C=C/C=C/C=C/1C,activation,[1],inactive: 3%
same,Potency,[2],active: 1480 nM
same,Potency,[3],"inconclusive: 4.7 nM [inhibitor, full curve, poor fit]"
same,Potency,[4],"inconclusive: 11.8 nM [inhibitor, full curve, poor fit]"
COc1nccc(-c2c(-c3ccc(F)cc3)ncn2C2CCNCC2)n1,Potency,[1],"inconclusive: 43.2 µM [activator, single point]"
same,Potency,[2],"inconclusive: 18600 nM [inhibitor, partial curve]"
same,Potency,[4],"inconclusive: 23500 nM [inhibitor, single point]"
C=C1C(=O)[C@@]23C(CC[C@@H]1[C@H]2O)[C@@]12CO[C@]3(O)[C@@H](O)[C@@H]1C(C)(C)CC[C@@H]2O (stereo partly drawn),Potency,[1],"inconclusive: 37.9 µM [activator, single point]"
same,Potency,[2],active: 2350 nM
same,Potency,[5],active: 5900 nM
C=CC(=O)Nc1cccc(Nc2nc(Nc3ccc(OCCOC)cc3)ncc2F)c1,Potency,[1],active: 9.53 µM
same,Potency,[2],active: 1860 nM
O=C(NC1CCNCC1)c1[nH]ncc1NC(=O)c1c(Cl)cccc1Cl,Potency,[1],active: 0.685 µM
same,Potency,[2],active: 1050 nM
same,Potency,[5],active: 1320 nM
same,Potency,[3],active: 2090 nM
Cn1cncc1C(N)(c1ccc(Cl)cc1)c1ccc2c(c1)c(-c1cccc(Cl)c1)cc(=O)n2C (stereo not drawn),Potency,[1],active: 26.9 µM
same,Potency,[2],active: 263 nM
same,Potency,[5],active: 372 nM
Cc1c(-c2ccc(O)cc2)n(Cc2ccc(OCCN3CCCCCC3)cc2)c2ccc(O)cc12,Potency,[1],active: 38.9 µM
same,Potency,[2],"inconclusive: 33200 nM [inhibitor, single point]"
same,Potency,[3],"inconclusive: 29500 nM [inhibitor, single point]"
Cn1cc(-c2cnc3ccc4ccc(CS(=O)(=O)NCc5ccccn5)cc4c(=O)c3c2)cn1,Potency,[1],"inconclusive: 26.9 µM [activator, partial curve, poor fit]"
same,Potency,[2],active: 23500 nM
CCC(=O)Nc1cccc(Oc2nc(Nc3ccc(N4CCN(C)CC4)cc3OC)ncc2Cl)c1,Potency,[1],"inconclusive: 15.1 µM [activator, partial curve, poor fit]"
same,Potency,[2],active: 11800 nM
same,Potency,[5],inactive
Cc1ccc(C(=O)N(CCCN)[C@@H](c2nc3cc(Cl)ccc3c(=O)n2Cc2ccccc2)C(C)C)cc1,Potency,[1],"inconclusive: 0.0019 µM [activator, full curve, poor fit]"
same,Potency,[2],"inconclusive: 14.8 nM [inhibitor, full curve]"
same,Potency,[5],active: 26.3 nM
C=CC(=O)N1CCc2ccc(-n3c(=O)ccc4cnc5ccc(-c6cnn(C)c6)cc5c43)cc21,Potency,[1],"inconclusive: 6.11 µM [activator, full curve, poor fit]"
same,Potency,[2],active: 407 nM
same,Potency,[3],active: 812 nM
same,Potency,[4],active: 574 nM
CC(C)C[C@H](NC(=O)[C@H](CCc1ccccc1)NC(=O)CN1CCOCC1)C(=O)N[C@@H](Cc1ccccc1)C(=O)N[C@@H](CC(C)C)C(=O)[C@@]1(C)CO1,Potency,[1],active: 110 nM and active: 273 nM
same,Potency,[6],active: 20.9 nM
same,Potency,[3],active: 52.5 nM
C[C@@H](Oc1cc(-c2cnn(C3CCNCC3)c2)cnc1N)c1c(Cl)ccc(F)c1Cl,Potency,[1],"inconclusive: 3.79 µM [activator, partial curve, poor fit] and inconclusive: 37.9 µM [activator, single point] and inconclusive: 43.2 µM [activator, single point]"
same,Potency,[2],active: 1180 nM
Nc1nc2c(ncn2COC(CO)CO)c(=O)[nH]1,Potency,[1],"inconclusive: 43.2 µM [activator, single point]"
same,Potency,[2],inactive
O=c1oc2c(O)c(O)cc3c(=O)oc4c(O)c(O)cc1c4c23,activation,[1],inactive: -6.69% and inactive: -19.7%
same,Potency,[2],inactive
same,Potency,[5],inactive
same,Potency,[4],inactive
CC(=O)N(O)CCCCCNC(=O)CCC(=O)N(O)CCCCCNC(=O)CCC(=O)N(O)CCCCCN,Potency,[1],active: 1.36 µM
same,Potency,[2],active: 9340 nM
same,Potency,[5],"inconclusive: 833 nM [inhibitor, full curve, poor fit]"
